These results are taken from PMC10668032.

The list shows a part of the results. At the low end of the ranking, values are background and their order means little.

In this experiment the target is SIX1 homeodomain (reference allele) (UniProt Q15475). Briefly: universal protein binding microarray. The settings on record: Universal all-10-mer PBM (8x60K, AMADID 030236), 300 nM GST-tagged protein, Alexa Fluor 488 anti-GST; buffer, salt, pH and temperature not stated; high values mean tight binding; most listed sequences are background and not binding sites; double strand, one strand shown.
Turning to CGCCGCTA, the binding signal is -0.198 E-score. With ACCATCCT the figure was -0.00911 E-score; with CGATGCTA, 0.0117 E-score; with AAAATGTT, -0.291 E-score. The figure for ATGAAAAG is -0.104 E-score.

Consider CCTCGATA, for which the binding signal is 0.335 E-score. The figure for AGCACGAA is -0.0993 E-score. With CATCAAAC the figure was -0.131 E-score. As to ATTATTAA, the binding signal came to 0.00962 E-score. With AGGATCCC the figure was 0.379 E-score; with ATAGAGCG, 0.0303 E-score.

Consider AGCCGACC, for which the binding signal is -0.106 E-score. The figure for AGACACTC is 0.0261 E-score; for ACCGAGGC it is -0.12 E-score. With ATTTCCCG the figure was 0.0401 E-score. The figure for CCATGTCC is -0.00154 E-score; for ATACGCGC it is 0.256 E-score; for GGATTCGA it is 0.212 E-score. On to AGCAAAAT, for which the binding signal is -0.0421 E-score.

As for CAACCATC, the binding signal is -0.0818 E-score.

For the sequence ATCCGAAC, the binding signal was 0.278 E-score. With ACCCGACC the figure was 0.0804 E-score; with CGCTTTTA, -0.201 E-score; with CGAAAGCG, -0.0807 E-score. The figure for ATACACCA is 0.389 E-score.

Consider CTATATGC, for which the binding signal stood at 0.105 E-score. With CATGCAAC the figure was -0.0801 E-score; with CGACAAAG, -0.146 E-score; with AAAACTTA, -0.225 E-score. The figure for CGGCGATC is 0.302 E-score; for CACGTGGC it is -0.197 E-score; for ACACCAAC it is 0.224 E-score. The figure for GTATGCAA is 0.0818 E-score; for ACAGCCTC it is -0.205 E-score; for AGACATCC it is -0.0495 E-score. Regarding ACGGCCTG, the binding signal was -0.0499 E-score.

With ACACGGAT, the binding signal is 0.401 E-score. The figure for CAGCCGAC is 0.0189 E-score; for AGGTAGAT it is 0.262 E-score. ATTATATC: the binding signal is 0.329 E-score.

Regarding AACTTCGT, the binding signal is -0.23 E-score. The figure for AGTTCCCA is -0.138 E-score; for AACAGACT it is -0.323 E-score; for TAACGCAA it is 0.00235 E-score.

As to GCATTCCC, the binding signal was -0.182 E-score. CCCGTTGC: the binding signal is -0.188 E-score. With ATAAAGGC the figure was -0.00853 E-score; with GCTATTCA, 0.0571 E-score; with GTATCTGA, 0.355 E-score. With GAGTCGTA the figure was 0.121 E-score; with AATATCAT, 0.381 E-score.

Turning to CCGAACTC, the binding signal is -0.282 E-score. The figure for CCGTGTGC is 0.000375 E-score; for ACAGGACC it is -0.304 E-score. The figure for ACTCCTTA is -0.15 E-score; for CGAGGGCA it is -0.0559 E-score; for CCGAACAA it is -0.116 E-score. Consider CAGTAACG, for which the binding signal is -0.265 E-score. The figure for ATCGCCAC is 0.198 E-score; for GATGGCGC it is -0.202 E-score; for CCCTTCGG it is 0.226 E-score.

As to GCCTACTA, the binding signal is -0.0297 E-score. The figure for CAGTGTTC is -0.115 E-score. The figure for TATGTTAA is 0.0145 E-score; for AGCAACCT it is -0.294 E-score; for TAGAAAAA it is -0.118 E-score. With CTTTTAGC the figure was -0.0553 E-score. Regarding TAGGAACA, the binding signal is -0.155 E-score. On to ATCACTCC, for which the binding signal is 0.0736 E-score. With AAGAGAGC the figure was -0.186 E-score; with AACACGCT, -0.0317 E-score; with CCCGTGAC, 0.0327 E-score. The figure for ACTGGTGC is -0.218 E-score; for TACGCCTA it is 0.0904 E-score. With GGCATAAA the figure was 0.0418 E-score; with AAAACCCT, -0.0688 E-score; with AGACGGAG, 0.0152 E-score. As to ATGGAATG, the binding signal was -0.0696 E-score. In the case of TAATGGAA, the binding signal came out at 0.0584 E-score. The figure for AGTGCCCA is -0.175 E-score; for CCCTCACA it is 0.0291 E-score. The figure for CTATCGCC is 0.179 E-score; for AGTTAGCG it is -0.0715 E-score; for AGTTAGTG it is -0.185 E-score. The figure for ACGGCGTG is -0.0433 E-score; for GAAGCGGA it is -0.0359 E-score; for TACTCATA it is 0.181 E-score. In the case of GGAAATAC, the binding signal came to 0.113 E-score. With TAGATATA the figure was 0.323 E-score. The figure for GCCGTCAC is -0.24 E-score; for AAGCTTCG it is -0.257 E-score; for CTCAACCC it is 0.0886 E-score. The figure for GCCCGCGC is -0.184 E-score; for AATCTTCA it is -0.0872 E-score; for AAGATGAC it is 0.00417 E-score. On to GAACTTCA, for which the binding signal is -0.314 E-score.

CCGGCGAG: the binding signal was -0.0333 E-score. The figure for CAATATAC is 0.197 E-score. With ACGGCTAA the figure was 0.13 E-score.

As to CTGGGCAC, the binding signal was -0.223 E-score. The figure for CGCACGGC is -0.088 E-score. With CAATTCTA the figure was -0.2 E-score; with AGAACATC, -0.161 E-score; with AGTTGGGC, -0.0845 E-score. With AATTGCGT the figure was -0.0445 E-score. Take AAAAGTCT: the binding signal was -0.317 E-score.

As to CCCCACGA, the binding signal worked out at 0.0942 E-score. The figure for AGCACGTG is 0.0669 E-score; for AACGTTAT it is -0.174 E-score; for GAAGTCGA it is -0.193 E-score. The figure for ATTCGTCG is -0.079 E-score; for CGGGCTTA it is -0.09 E-score.

As to ATCGTATA, the binding signal was 0.324 E-score. For AAACTATG, the binding signal was determined as 0.033 E-score. With GGGACACC the figure was 0.341 E-score. With GGGAAGCA the figure was -0.293 E-score.

For AATTTCTG, the binding signal was -0.249 E-score. The figure for CACTTCAA is -0.171 E-score; for CTTGTAGA it is -0.118 E-score; for TACGGACA it is 0.104 E-score. With CGCAGAAA, the binding signal is -0.39 E-score. The figure for AAATGCCC is -0.152 E-score; for CGTAAGCC it is -0.193 E-score; for GCGGCGAA it is -0.13 E-score. With TCCGAAGA the figure was 0.189 E-score; with CAATCGCA, 0.00923 E-score; with AGCGACAC, 0.26 E-score. On to TCTACACA, for which the binding signal was -0.118 E-score. The figure for AAAGCTGT is -0.2 E-score; for AGTGGCTC it is -0.104 E-score; for GGCAAACC it is -0.0651 E-score. On to CAGACGTA, for which the binding signal is -0.089 E-score. The figure for GCGATTCC is -0.00474 E-score. With CCACCCCA the figure was 0.0516 E-score.

For CAAGGACG, the binding signal was -0.258 E-score. For the sequence ACTGCCCT, the binding signal was -0.141 E-score. For the sequence ACACTCTG, the binding signal worked out at 0.0173 E-score. Regarding CCTTTTCC, the binding signal was -0.125 E-score.

On to GCTCGCAC, for which the binding signal was -0.156 E-score. The figure for AGTGACAA is -0.121 E-score. In the case of GTCGATCA, the binding signal turned out to be 0.0264 E-score.

Turning to GCCAGTGA, the binding signal was -0.0529 E-score. The figure for ACTAATAT is 0.272 E-score; for CTAACGTC it is -0.223 E-score; for CCATTGTA it is 0.0462 E-score.

ACGGCGCG: the binding signal amounted to 0.00186 E-score.

As to AGTCCGAC, the binding signal was -0.129 E-score.

As for CGCCCGCG, the binding signal was -0.0812 E-score. With CAAGTCCA the figure was -0.215 E-score; with CAAGGTAG, 0.00419 E-score. As for CCTGCCAG, the binding signal is -0.146 E-score. The figure for ATGGTTTC is 0.081 E-score; for AGTGGCCC it is -0.26 E-score; for CCACCTGC it is -0.142 E-score.

For TACATGAA, the binding signal is -0.0562 E-score. CAATTTAC: the binding signal is -0.194 E-score.

Regarding GTCGAAAA, the binding signal was -0.14 E-score. With GCGGAAAC the figure was -0.0738 E-score. In the case of TCCTAGAA, the binding signal amounted to 0.0647 E-score. With ACGATACT the figure was 0.439 E-score; with ATACTCCC, 0.303 E-score; with CGTTTTCA, -0.142 E-score. The figure for CCCTAGGC is -0.113 E-score; for TAAAGCTA it is -0.0359 E-score; for AACACAGG it is -0.178 E-score. With AACGATGA the figure was 0.00348 E-score; with ACGTTGAT, 0.138 E-score; with TAGGGTAA, 0.00051 E-score.

Consider AAGCTGAG, for which the binding signal was -0.143 E-score. The figure for CTGAGTGC is -0.141 E-score; for ATACTAGA it is 0.218 E-score. With GGCTAGAC the figure was -0.0795 E-score.
